Assay results taken from the RNAGym collection of RNA variant scans (doi:10.7554/elife.90254).
The source gives no read counts; variants with many changes may rest on few reads.

B1: LINE1-full (parent)
chain: UACGUAGGUGGUUUUCCCCUGAUAGUGCUAAGGGGGCCUGGAAGUUUGGACUGGGCAGAGCUCAACACAGCGUGGCAAAGUGGCUGUGGCUAGACUGCCUCUCUGGAUUCCUCGUCACUCAGCAGGGCAUCUCUGAGAGAAAUGCC
B2: LINE1-mini (parent)
chain: GGCAGAGCUCAACACAGCGUGGCAAAGUGGCUGUGGCUAGACUGCC

Variants of: B1
Assay: self-cleavage, relative activity (ratio to wild type); higher = more cleavage; in vitro, sequencing; the parent is a self-cleaving ribozyme
U112A U132C A136G A142G gave a self-cleavage of 1.65. In the case of U112C A117G A141G, the self-cleavage is reported as 0.88. In the case of U112C A124G U143A, the self-cleavage is reported as 1.34. Variant U112C A124U A136G has a self-cleavage of 1.32. With U112C A129G A140G the self-cleavage was 0.27. U112C U115C U132C showed a self-cleavage of 1.11. Variant U112C U130A G135A A140C has a self-cleavage of 1.07. C113U A124G U132A gave a self-cleavage of 1.19. For C113U U132C A138U, the self-cleavage was 2.24. G114A A117G A142G showed a self-cleavage of 2.23. G114A A117U A141G A142G showed a self-cleavage of 0.95. Variant G114A U130A A140G has a self-cleavage of 1.28. Variant G114U A124G A129C has a self-cleavage of 1.7. U115A A117G U143G gave a self-cleavage of 2.43. Work on U115A G122A A141G yielded a self-cleavage of 1.24. Work on U115A G122A U132C yielded a self-cleavage of 1.93. Work on U115A U130C U132C yielded a self-cleavage of 0.98. For U115C A117G A129G, the self-cleavage was 2.63. In the case of U115C A124G U130C, the self-cleavage is reported as 2.76. Work on U115C A138U U143C yielded a self-cleavage of 1.06. For U115C U119C A142G, the self-cleavage was 2.71. U115C U134C A138G gave a self-cleavage of 1.53. Variant U115C U134C A140G has a self-cleavage of 1.19. For U115C U134C U143A, the self-cleavage was 1.62. Work on U115G A124U U132C yielded a self-cleavage of 2.45. For C116U A129C A141G, the self-cleavage was 0.61. Work on C116U A129G A138G yielded a self-cleavage of 1.45. In the case of C116U U132C A136U, the self-cleavage is reported as 1.19. In the case of A117G A121U G126A, the self-cleavage is reported as 1.55. With A117G C133U A138G the self-cleavage was 1.37. A117U A121U A138G showed a self-cleavage of 1.22. A117U A129U A138G A140G showed a self-cleavage of 1.37. With A117U U119C U143A the self-cleavage was 1.2. A117U U134A A142G gave a self-cleavage of 0.69. C118U A121C U134G gave a self-cleavage of 2.11. Work on U119A A124G U130A yielded a self-cleavage of 1.61. For U119A C123G A140G, the self-cleavage was 0.66. For U119A C131U A140G, the self-cleavage was 1.99. U119A U130C U134A showed a self-cleavage of 1.48. With U119A U132C A136G U143A the self-cleavage was 1.15. With U119A U134C A138G the self-cleavage was 1.55. For U119C A136G U143A, the self-cleavage was 2.12. U119C A138U A142G gave a self-cleavage of 1.1. In the case of U119G A129G A141G, the self-cleavage is reported as 0.92. Variant C120U A129G A142G has a self-cleavage of 2.04. With A121G A129G A142G the self-cleavage was 1.84. Work on A121G A141G G144A yielded a self-cleavage of 2.15. For A121G U132C A140G, the self-cleavage was 2.16. Work on A121U A129G A140G yielded a self-cleavage of 1.48. In the case of A121U A138G A142G, the self-cleavage is reported as 1.94. In the case of G122A A140U U143C, the self-cleavage is reported as 1.33. Variant C123G G127A G135U has a self-cleavage of 1.24. In the case of C123U G126A A140G, the self-cleavage is reported as 0.75. A124G C128G A140G gave a self-cleavage of 0.19. A124G C133A U134C gave a self-cleavage of 1.2. Variant A124G U130C U132C A138G has a self-cleavage of 1.23. Variant A124G U134A A136G has a self-cleavage of 0.42. Variant A124U A129G A140G has a self-cleavage of 0.74. A124U U130C U143A showed a self-cleavage of 0.48. With A124U U132A U134A the self-cleavage was 1.91. Variant G126U U132C U134C has a self-cleavage of 1.95. G127U A138G A141G showed a self-cleavage of 1.04. Work on G127U U132C A138G yielded a self-cleavage of 0.32. In the case of C128U A129U A138C, the self-cleavage is reported as 0.64. Work on A129C A138U C145A yielded a self-cleavage of 1.41. For A129C A140G A141G, the self-cleavage was 1.27. With A129G A140G A142G the self-cleavage was 0. In the case of A129G A142G U143A, the self-cleavage is reported as 1.16. Work on A129G U132C U143A yielded a self-cleavage of 1.72. A129G U143A C146A showed a self-cleavage of 1.34. A129U A138G U143C showed a self-cleavage of 1.33. Variant U130C A141G U143A has a self-cleavage of 1.29. U130C U132A A142G gave a self-cleavage of 1.3. Variant U130G A138G U143C has a self-cleavage of 1.31. U130G U134C A142G showed a self-cleavage of 0.14. In the case of U132A U134A A141G, the self-cleavage is reported as 1.36. U132C A140U U143C gave a self-cleavage of 1.37. Variant U132C U134A A140G has a self-cleavage of 0.57. Variant U132C U134C A138G has a self-cleavage of 0.45. For U134A A138U C146U, the self-cleavage was 1.83. U134A A140G A141G showed a self-cleavage of 0.54. With A136G A140G C145A the self-cleavage was 1.84.

Variants of: B2
Assay: as above
With G1A A4C C45G the self-cleavage was 0.1. In the case of G1A A4C G21C, the self-cleavage is reported as 0.02. For G1A A4C U9A G27A G29U, the self-cleavage was 0.26. Variant G1A A4G A14C G19C C46U has a self-cleavage of 0.05. Variant G1A A4G A16U G44A has a self-cleavage of 0.03. In the case of G1A A4G A25C A26G, the self-cleavage is reported as 0.06. For G1A A4G C8U A12U C13U U28G, the self-cleavage was 0.04. Variant G1A A4G G5C C15G G27C C46G has a self-cleavage of 0.02. G1A A4U A6C A12U G30C showed a self-cleavage of 0.08. With G1A A4U A6C G7C A24C G27C the self-cleavage was 0.18. G1A A4U C15U G21C C42U G44A showed a self-cleavage of 0.09. G1A A4U G21A U34C C37U gave a self-cleavage of 0.14. For G1A A6C C10A C18U U34G C37A G40A G44U, the self-cleavage was 0.05. In the case of G1A A6C C23U U34C, the self-cleavage is reported as 0.29. Variant G1A A6G C31U U38G has a self-cleavage of 0.01. For G1A A6G G17C U20G U28C U32A, the self-cleavage was 0.04. Variant G1A A6G G29C has a self-cleavage of 0.06. For G1A A6G U20C, the self-cleavage was 0.13. Work on G1A A6U C13G G19A A26U C31G G35A yielded a self-cleavage of 0.05. In the case of G1A A6U C31G C42U C45U, the self-cleavage is reported as 0.08. In the case of G1A A6U G7U C8U G27U G33A, the self-cleavage is reported as 0.38. Variant G1A A6U G30A U43C has a self-cleavage of 0.13. Variant G1A A11C C18U C42U has a self-cleavage of 0.02. Variant G1A A11C C46A has a self-cleavage of 0.04. Work on G1A A11C G21U C45A yielded a self-cleavage of 0.01. Work on G1A A11C G35C G40C C45U yielded a self-cleavage of 0.01. Work on G1A A11C U38A A39C yielded a self-cleavage of 0. With G1A A11G C23U G40C the self-cleavage was 0.02. Variant G1A A11G C31A C37A G40C C42A has a self-cleavage of 0. G1A A11G G17A G19C gave a self-cleavage of 0.04. In the case of G1A A11G G22A, the self-cleavage is reported as 0.04. Work on G1A A11G G27U yielded a self-cleavage of 0.05. For G1A A11U G33A C46U, the self-cleavage was 0.06. With G1A A11U G35C the self-cleavage was 0.02. With G1A A12C A14U the self-cleavage was 0.01. Work on G1A A12C A41C yielded a self-cleavage of 0.04. With G1A A12C C18A G33A U34C C37A G44U the self-cleavage was 0.08. In the case of G1A A12C G30C U34A, the self-cleavage is reported as 0.06. G1A A12G G19C U28G U34C showed a self-cleavage of 0.01. With G1A A14C G19U U43C the self-cleavage was 0.04. G1A A14C U34C gave a self-cleavage of 0.02. Variant G1A A14G A25U C31A U34A C37A has a self-cleavage of 0.01. For G1A A14G C18G, the self-cleavage was 0.03. In the case of G1A A14U A25G U43C, the self-cleavage is reported as 0.14. G1A A14U C37U C46U gave a self-cleavage of 0.02. For G1A A14U G30C, the self-cleavage was 0.06. For G1A A14U G30U C31A, the self-cleavage was 0.04. In the case of G1A A16C G21A G30U, the self-cleavage is reported as 0.07. Variant G1A A16G C31G C37A has a self-cleavage of 0.01. Variant G1A A16G U28A has a self-cleavage of 0.04. With G1A A16U C23G G29U U38A the self-cleavage was 0.06. For G1A A16U C23U A25G G29U, the self-cleavage was 0.02. In the case of G1A A16U G35U, the self-cleavage is reported as 0.18. Variant G1A A24C A26G C45U has a self-cleavage of 0.12. G1A A24U G30A G35U showed a self-cleavage of 0.03. G1A A25G C37G C42A C45A gave a self-cleavage of 0.06. For G1A A25G U28G G35A, the self-cleavage was 0.09. G1A A25G U32G A39C C45G showed a self-cleavage of 0.08. Work on G1A A25U G40C A41C yielded a self-cleavage of 0.08. With G1A A26G C42G U43A C45U the self-cleavage was 0.01. G1A A26U C31U G35A G40C gave a self-cleavage of 0.08. In the case of G1A A26U C31U U38A C45G, the self-cleavage is reported as 0.13. With G1A A39U U43G the self-cleavage was 0. G1A C3A C10U U38A gave a self-cleavage of 0.88. G1A C3A C13U U38C G40C C42A C46G showed a self-cleavage of 0.28. With G1A C3A C42U C46A the self-cleavage was 0.71. Variant G1A C3A G19U G22C A24C G35U has a self-cleavage of 2.54. G1A C3A G21A U38A A41G showed a self-cleavage of 0.56. With G1A C3G A6C C13A G33A the self-cleavage was 0.19. G1A C3G A16C G29U A39C showed a self-cleavage of 0.52. Variant G1A C3G C10A C42U has a self-cleavage of 0.04. G1A C3G G5U A6U C15G showed a self-cleavage of 0.09. In the case of G1A C3G G30U, the self-cleavage is reported as 0.62. In the case of G1A C3U A6C A14U C18A, the self-cleavage is reported as 0.08. Variant G1A C3U A14U has a self-cleavage of 0.54. With G1A C3U G5A A12G A25G the self-cleavage was 0.08. With G1A C3U G7C C18G U28A U34G the self-cleavage was 0.38. G1A C3U G35A C45G showed a self-cleavage of 0.13. In the case of G1A C8A A14U C23A G33C, the self-cleavage is reported as 0.24. Work on G1A C8A C10G A12U yielded a self-cleavage of 0.02. In the case of G1A C8A C31U U34G, the self-cleavage is reported as 0.17. With G1A C8G A16C C31U A39U U43A the self-cleavage was 0.06. G1A C8G C10G gave a self-cleavage of 0.07. With G1A C8G G21U A41C C45A the self-cleavage was 0.21. Variant G1A C8G G33U has a self-cleavage of 0.05.
